# According to the supplement of paper PMC8728848:
# The other results are listed elsewhere or left out.
# How the values were obtained:
# Test in all cases: glycan array binding signal (z-score within array); higher = stronger binding
# Conditions in all cases: glycan notation: IUPAC condensed, linker removed
# [1] = biological target: Gal(b1-4)GalNAc(b1-3)[Fuc(a1-2)]Gal(b1-4)GlcNAc
# Procedure, shortened: (§1)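 Glycan array data came from 3228 arrays in the Consortium for Functional Glycomics database, and only arrays with an available protein sequence were kept. Glycan names were put into IUPAC-condensed notation, and columns mapping to the same glycan were averaged. The binding signal is a within-array Z-score, averaged across arrays of one protein sequence run at different concentrations or buffers and across linkers. A negative Z-score can be read as non-binding.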
# Gal(b1-4)Glc = biological target: Gal(b1-4)Glc
# Procedure, shortened: as §1
# Gal(b1-4)Glc6S = biological target: Gal(b1-4)Glc6S
# Procedure, shortened: as §1
# Gal(b1-4)GlcNAc = biological target: Gal(b1-4)GlcNAc
# Procedure, shortened: as §1
# [2] = biological target: Gal(b1-4)GlcNAc(a1-6)Gal(b1-4)GlcNAc
# Procedure, shortened: as §1
# Gal(b1-4)GlcNAc(b1-2)Man = biological target: Gal(b1-4)GlcNAc(b1-2)Man
# Procedure, shortened: as §1
# [3] = biological target: Gal(b1-4)GlcNAc(b1-2)Man(a1-3)Man(b1-4)GlcNAc(b1-4)GlcNAc
# Procedure, shortened: as §1
# [4] = biological target: Gal(b1-4)GlcNAc(b1-2)Man(a1-3)[Gal(b1-4)GlcNAc(b1-2)Man(a1-6)]Man(b1-4)GlcNAc(b1-4)GlcNAc
# Procedure, shortened: as §1
# [5] = biological target: Gal(b1-4)GlcNAc(b1-2)Man(a1-3)[Gal(b1-4)GlcNAc(b1-2)Man(a1-6)]Man(b1-4)GlcNAc(b1-4)[Fuc(a1-6)]GlcNAc
# Procedure, shortened: as §1
# [6] = biological target: Gal(b1-4)GlcNAc(b1-2)Man(a1-3)[Gal(b1-4)GlcNAc(b1-2)Man(a1-6)][Gal(b1-4)GlcNAc(b1-4)]Man(b1-4)GlcNAc(b1-4)[Fuc(a1-6)]GlcNAc
# Procedure, shortened: as §1
# [7] = biological target: Gal(b1-4)GlcNAc(b1-2)Man(a1-3)[Gal(b1-4)GlcNAc(b1-2)Man(a1-6)][GlcNAc(b1-4)]Man(b1-4)GlcNAc(b1-4)[Fuc(a1-6)]GlcNAc
# Procedure, shortened: as §1
# [8] = biological target: Gal(b1-4)GlcNAc(b1-2)Man(a1-3)[GlcNAc(b1-2)Man(a1-6)]Man(b1-4)GlcNAc(b1-4)GlcNAc
# Procedure, shortened: as §1
# [9] = biological target: Gal(b1-4)GlcNAc(b1-2)Man(a1-3)[GlcNAc(b1-4)][Gal(b1-4)GlcNAc(b1-2)Man(a1-6)]Man(b1-4)GlcNAc(b1-4)GlcNAc
# Procedure, shortened: as §1
# [10] = biological target: Gal(b1-4)GlcNAc(b1-2)Man(a1-3)[Man(a1-6)]Man(b1-4)GlcNAc(b1-4)GlcNAc
# Procedure, shortened: as §1
# [11] = biological target: Gal(b1-4)GlcNAc(b1-2)Man(a1-6)Man(b1-4)GlcNAc(b1-4)GlcNAc
# Procedure, shortened: as §1
# [12] = biological target: Gal(b1-4)GlcNAc(b1-2)Man(a1-6)[GlcNAc(b1-2)Man(a1-3)]Man(b1-4)GlcNAc(b1-4)GlcNAc
# Procedure, shortened: as §1
# [13] = biological target: Gal(b1-4)GlcNAc(b1-2)Man(a1-6)[Man(a1-3)]Man(b1-4)GlcNAc(b1-4)GlcNAc
# Procedure, shortened: as §1
# [14] = biological target: Gal(b1-4)GlcNAc(b1-2)[Gal(b1-4)GlcNAc(b1-4)]Man(a1-3)[Gal(b1-4)GlcNAc(b1-2)Man(a1-6)]Man(b1-4)GlcNAc(b1-4)GlcNAc
# Procedure, shortened: as §1
# [15] = biological target: Gal(b1-4)GlcNAc(b1-2)[Gal(b1-4)GlcNAc(b1-4)]Man(a1-3)[Gal(b1-4)GlcNAc(b1-2)[Gal(b1-4)GlcNAc(b1-6)]Man(a1-6)]Man(b1-4)GlcNAc(b1-4)GlcNAc
# Procedure, shortened: as §1
# [16] = biological target: Gal(b1-4)GlcNAc(b1-2)[Gal(b1-4)GlcNAc(b1-4)]Man(a1-3)[GlcNAc(b1-4)][Gal(b1-4)GlcNAc(b1-2)Man(a1-6)]Man(b1-4)GlcNAc(b1-4)GlcNAc
# Procedure, shortened: as §1
# [17] = biological target: Gal(b1-4)GlcNAc(b1-2)[Gal(b1-4)GlcNAc(b1-4)]Man(a1-3)[GlcNAc(b1-4)][Gal(b1-4)GlcNAc(b1-2)[Gal(b1-4)GlcNAc(b1-6)]Man(a1-6)]Man(b1-4)GlcNAc(b1-4)GlcNAc
# Procedure, shortened: as §1
# [18] = biological target: Gal(b1-4)GlcNAc(b1-2)[Gal(b1-4)GlcNAc(b1-6)]Man(a1-6)[Gal(b1-4)GlcNAc(b1-2)Man(a1-3)]Man(b1-4)GlcNAc(b1-4)GlcNAc
# Procedure, shortened: as §1
# [19] = biological target: Gal(b1-4)GlcNAc(b1-2)[Gal(b1-4)GlcNAc(b1-6)]Man(a1-6)[Gal(b1-4)GlcNAc(b1-2)Man(a1-3)]Man(b1-4)GlcNAc(b1-4)[Fuc(a1-6)]GlcNAc
# Procedure, shortened: as §1
# [20] = biological target: Gal(b1-4)GlcNAc(b1-2)[Gal(b1-4)GlcNAc(b1-6)]Man(a1-6)[GlcNAc(b1-4)][Gal(b1-4)GlcNAc(b1-2)Man(a1-3)]Man(b1-4)GlcNAc(b1-4)GlcNAc
# Procedure, shortened: as §1
# [21] = biological target: Gal(b1-4)GlcNAc(b1-2)[Gal(b1-4)GlcNAc(b1-6)]Man(a1-6)[GlcNAc(b1-4)][Gal(b1-4)GlcNAc(b1-2)[Gal(b1-4)GlcNAc(b1-4)]Man(a1-3)]Man(b1-4)GlcNAc(b1-4)[Fuc(a1-6)]GlcNAc
# Procedure, shortened: as §1
# [22] = biological target: Gal(b1-4)GlcNAc(b1-3)Gal(b1-3)GalNAc
# Procedure, shortened: as §1
# [23] = biological target: Gal(b1-4)GlcNAc(b1-3)Gal(b1-3)GlcNAc
# Procedure, shortened: as §1
# [24] = biological target: Gal(b1-4)GlcNAc(b1-3)Gal(b1-4)Glc
# Procedure, shortened: as §1
# [25] = biological target: Gal(b1-4)GlcNAc(b1-3)Gal(b1-4)GlcNAc
# Procedure, shortened: as §1
# [26] = biological target: Gal(b1-4)GlcNAc(b1-3)Gal(b1-4)GlcNAc(b1-2)Man(a1-3)[Gal(b1-4)GlcNAc(b1-3)Gal(b1-4)GlcNAc(b1-2)Man(a1-6)]Man(b1-4)GlcNAc(b1-4)GlcNAc
# Procedure, shortened: as §1
binder,measurement,setting,value
CvGal2 (Crassostrea virginica) (protein) MGSSHHHHHHSSGLVPRGSHMRIREAGKRKDTTKVYQIPDGLFPGQQVMLRGRVPWGSKSFSINFSATPRMGEGDILFHLNPRPSEGVCIRNALLNGSWGAEEKWQPYFPFDDGRSFSVKIEVTNDAFRTFVNGRPFVDFLHRTDFRAGKYLTLREGAEYYDVIFQSKPNIPLTTAIHNGMRIGKTIRIRGMCTAQDGFAINFNDNRNNIYFHFNARPAQRTVVRNSYFGSWGNEETAISKEFPFYPFLYFYASFVCMEDKFAVYVNDEHFIDFAHRGNPNNISVLQIKGSVNVLDTECLEPMGEDAMTEVDSGLENGDLFVLNGLMTERGKTFAVNFLNGFTENDDIALHFNPRKSTGEVVLNSRYGGAWQSEEKVALPGVFWSNRPLQVKVETKRNKFKIYVNGVDLAKYKIRGNVEDVHAVQVKGDVFLLETLLLKRLMKPVWERLTGGIRPGTWVTLQGTPKKNWQQFVVNFALDDTLDGDIAFHFNVRRGARQVVRNHRQSGAWGREETVTPFFAFDSEATFEIVFFVKEEKFLIYFNGKLFFEFVHRVPVERITHIYMDGDCNFYEPEVVI,glycan array binding signal (z-score),[1],-0.333
same,glycan array binding signal (z-score),Gal(b1-4)Glc,-0.305
same,glycan array binding signal (z-score),Gal(b1-4)Glc6S,0.114
same,glycan array binding signal (z-score),Gal(b1-4)GlcNAc,-0.336
same,glycan array binding signal (z-score),[2],-0.325
same,glycan array binding signal (z-score),Gal(b1-4)GlcNAc(b1-2)Man,-0.318
same,glycan array binding signal (z-score),[3],-0.315
same,glycan array binding signal (z-score),[4],-0.287
same,glycan array binding signal (z-score),[5],-0.3
same,glycan array binding signal (z-score),[6],-0.11
same,glycan array binding signal (z-score),[7],-0.277
same,glycan array binding signal (z-score),[8],-0.329
same,glycan array binding signal (z-score),[9],-0.3
same,glycan array binding signal (z-score),[10],-0.316
same,glycan array binding signal (z-score),[11],-0.324
same,glycan array binding signal (z-score),[12],-0.32
same,glycan array binding signal (z-score),[13],-0.329
same,glycan array binding signal (z-score),[14],0.253
same,glycan array binding signal (z-score),[15],-0.18
same,glycan array binding signal (z-score),[16],-0.079
same,glycan array binding signal (z-score),[17],0.58
same,glycan array binding signal (z-score),[18],0.1
same,glycan array binding signal (z-score),[19],0.523
same,glycan array binding signal (z-score),[20],0.118
same,glycan array binding signal (z-score),[21],0.876
same,glycan array binding signal (z-score),[22],-0.331
same,glycan array binding signal (z-score),[23],-0.261
same,glycan array binding signal (z-score),[24],-0.257
same,glycan array binding signal (z-score),[25],-0.325
same,glycan array binding signal (z-score),[26],-0.23
